Results: PubChem BioAssay AID1508642 (National Center for Advancing Translational Sciences (NCATS), 2021)
Out of some 43,000 compounds screened, about 200 (0.47%) were called active. About 12% were inconclusive and are not listed. Calls follow the shape of the dose curve; as a rule, active = well fitted cell-killing curve with a large enough effect; inconclusive = small, poorly fitted or top-dose-only effect, or effect the other way; inactive = flat fitted curve, though single readings scatter. The list shows a part of the results.

Experiment: Cell viability qHTS assay in S16 Pmp22-F2sN cells; also: nearly all actives have a fitted effect of over 65% in size
Settings: S16 Pmp22-F2sN Schwann cells viability, CellTiter-Glo, 24 h; series mostly up to 57.5 µM; activity change, negative = cytotoxicity: at the top concentration
Procedure, shortened: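 S16 Pmp22-F2sN Schwann cells (500-1,000/well) in phenol-red-free DMEM with 10% FBS received 23 nL compound by pin tool for 24 h at 37 °C. Viability was then read as CellTiter-Glo luminescence after 15 min at room temperature.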
% is scaled to controls: 0 for no effect and ±100 for the full control effect.

SMILES	activity change, negative = cytotoxicity
COc1ccc(NC(=O)c2cc3cc(C)ccc3n2C)cc1	inactive: 6.89%
Cc1ccc(-c2nnc3ccccc3c2C(=O)Nc2cccc(Cl)c2)cc1	inactive: -2.31%
Cn1c(=O)c(=O)n(C)c2cc(N3CCOCC3)c(NS(=O)(=O)c3ccc(F)c(Cl)c3)cc21	inactive: -0.118%
Cc1cccc(-c2nc(SCC(=O)NCc3ccco3)c3c(=O)n(C)c(=O)n(C)c3n2)c1	inactive: -2.33%
Cc1ccc(Cn2c(CNS(=O)(=O)c3ccc(Cl)s3)nc3cccnc32)cc1	inactive: -12.6%
Cc1cc2[nH]c(=O)c(=O)[nH]c2cc1S(=O)(=O)N1CCN(c2cccc(C)c2C)CC1	inactive: 20.7%
CCOC(=O)C(=O)Nc1c(C(=O)Nc2cccc(F)c2)oc2ccccc12	inactive: 0.456%
COc1ccccc1N1CCN(c2nc3c(S(=O)(=O)c4ccc(C)c(C)c4)nnn3c3ccc(Cl)cc23)CC1	inactive: 6.84%
CCOC(=O)c1ccc(NS(=O)(=O)c2cc(Br)cc3c2N(C(C)=O)C(C)C3)cc1 (configuration not stated)	inactive: -0.415%
CCN(CCCNC(=O)c1nn(-c2ccc(OC)c(Cl)c2)c(=O)c2c1c1ccccc1n2C)c1cccc(C)c1	inactive: 4.73%
CCc1ccccc1Nc1cc(C(=O)NC2CCC(C)CC2)c2ccccc2n1 (configuration not stated)	inactive: 1.73%
COc1ccc(CNC(=O)c2cc(-c3ccc(C)c(C)c3)n[nH]2)cc1	inactive: -14.9%
O=C(Nc1nnc(S(=O)(=O)N2CCc3ccccc32)s1)c1ccccc1	inactive: 0.126%
CCOc1nc(-c2ccc(C)cc2)ccc1-c1noc(-c2ccccc2F)n1	inactive: 4.54%
CCOC(=O)c1c(NC(=O)COc2cccc(C(F)(F)F)c2)sc2c1CCCCC2	inactive: 0.225%
CC(C)COc1ccc(C(=O)N2CCN(CCc3ccccn3)CC2)cc1	inactive: 5.93%
COc1ccc(CCNC(=O)CCc2c(C)c3cc4c(C)c(C)oc4cc3oc2=O)cc1	inactive: -8.55%
COc1ccc(NC(=O)CC(C)n2nc(C)cc2C)cc1Cl (configuration not stated)	inactive: -1.54%
CCOc1ccc(CCNC(=O)Cn2ncn3c(cc4ccccc43)c2=O)cc1OCC	inactive: 5.5%
CCn1c(C(=O)Nc2cc(Cl)ccc2C)cc2sc(Cl)cc21	inactive: 21.9%
COc1cc(NC(=O)c2cnc3c(-c4ccc(F)cc4)c(C)nn3c2C)cc(OC)c1	inactive: -19.5%
Cc1ccc(Sc2c(C(=O)NCc3ccccc3C)[nH]c3ccccc23)cc1	inactive: 6.05%
Cc1ccc(-c2nc3ccc(Cl)cn3c2Nc2ccc3c(c2)OCCO3)s1	inactive: 13.8%
CCN(CC)S(=O)(=O)c1ccc2oc(C(=O)Nc3ccc(Br)cc3F)c(C)c2c1	inactive: -3.75%
COc1ccc(CNC(=O)CN2C(=O)CCCc3ccccc32)cc1	inactive: 3.76%

SMILES	activity change, negative = cytotoxicity
N#Cc1ccccc1Cn1c(=O)n(Cc2ccc(C(=O)NC3CCN(Cc4ccccc4)CC3)cc2)c(=O)c2ccccc21	inactive: 4.68%
CCCOc1ccc(CN(C(=O)c2nc(SC(C)C)ncc2Cl)C2CCS(=O)(=O)C2)cc1 (configuration not stated)	inactive: -9.55%
CCOc1ccc(/C=C/c2nc(C#N)c(Nc3ccc(OC)cc3)o2)cc1	inactive: 2.58%
CCNC(=O)c1ccc2nc(Cc3ccccc3)oc2c1	inactive: -3.57%
COc1cc2[nH]c(=O)n(CCCCCC(=O)NCCc3ccccc3)c(=O)c2cc1OC	inactive: -0.641%
Fc1ccc(-c2ccc(CNCCSc3nnnn3-c3ccccc3)o2)cc1Cl	inactive: -9.24%
O=C(Nc1c(C(=O)Nc2cccc(F)c2)oc2ccccc12)c1cc2ccccc2o1	inactive: -1.16%
CCOC(=O)c1cc(-c2ccccc2)n(-c2cccc(C(=O)N(CC)c3ccccc3)c2)c1C	inactive: 5.32%
COc1ccc(N2CC(NC(=O)COc3ccccc3C)CC2=O)cc1OC (configuration not stated)	inactive: -0.745%
CCN1c2cc(C)ccc2-n2cccc2C12CCN(C(=O)Nc1cc(OC)c(OC)c(OC)c1)CC2	inactive: -13%
Cc1ccc(S(=O)(=O)c2nc(-c3ccco3)oc2SCc2ccccc2Cl)cc1	inactive: -7.67%
COc1ccc(N2CCN(C(=O)NCc3noc4ccccc34)CC2)cc1	inactive: -1.36%
Cc1cc(C)cc(-n2ccn3c(CC(C)(C)CC(=O)O)nnc3c2=O)c1	inactive: 13%
COc1cccc(NC(=O)C2CCCN2S(=O)(=O)c2ccc3c(c2)C(C)(C)C(=O)N3C)c1 (configuration not stated)	inactive: -10.1%
Cc1ccc(-n2c(SCC(=O)Nc3cccc(F)c3)nc3c(oc4ccccc43)c2=O)cc1C	inactive: -19.2%
Cc1cccc(C(=O)OCc2cc(=O)n3nc(C4CCCCC4)sc3n2)c1	inactive: 1.22%
O=C(Cc1cccs1)NC1CC(=O)N(c2ccc(Cl)cc2)C1 (configuration not stated)	inactive: -0.193%
CC(C)Sc1ncc(Cl)c(C(=O)N(Cc2ccc(F)cc2)C2CCS(=O)(=O)C2)n1 (configuration not stated)	inactive: 2.76%
Cc1ccc(-c2nn3c(-c4ccccc4)nnc3c3ccccc23)cc1	inactive: 3.28%
CC1=C(C(=O)Nc2ccc(C)cc2)C(c2ccc(Cl)cc2)n2nnnc2N1 (configuration not stated)	inactive: 15.3%
Cc1ccc(NC(=O)CN2C(=O)C(C)(C)c3ccccc32)cc1	inactive: -10.9%
CCOc1ccc(N2CC(NC(=O)Cc3ccccc3)CC2=O)cc1 (configuration not stated)	inactive: -2.99%
COc1ccc(N2Cc3cccc(C(=O)Nc4ccc(C)c(C)c4)c3C2=O)cc1	inactive: 10.2%
O=C(NCCC1=CCCCC1)c1ccc2c(c1)N(Cc1ccccc1F)C(=O)c1ccccc1S2(=O)=O	inactive: -4.67%
CCc1cccc(N2C(=O)CS(=O)(=O)C23C(=O)N(Cc2ccc(F)cc2)c2ccc(C)cc23)c1 (configuration not stated)	inactive: -2.22%

SMILES	activity change, negative = cytotoxicity
CCc1ccc(NC(=O)CN2C(C(=O)OC)=C(c3ccccc3)c3ccccc3S2(=O)=O)cc1	inactive: -2.03%
CC(C)CCNC(=O)C1CCC(CNS(=O)(=O)c2cccc3nsnc23)CC1 (configuration not stated)	inactive: -18.8%
CCCc1nn2c(=O)cc(COC(=O)c3ccccc3NC(=O)c3ccc(OCC)cc3)nc2s1	inactive: -13.9%
O=C(Nc1ccc(Cl)cc1F)c1cc(S(=O)(=O)NC2CCCCCC2)ccc1F	inactive: -4.45%
O=C(CSc1nc(=O)n(Cc2ccccn2)c2c1CCC2)Nc1cccc(Cl)c1	inactive: 18.9%
COCCNC(=O)CSc1nc(-c2ccc(C)cc2)[nH]c1-c1ccc(OC)cc1	inactive: 0.55%
Cc1ccc(C(=O)c2cn(Cc3ccccc3)c3ccccc3c2=O)cc1	inactive: -3.11%
Cc1cccc(-c2nc3cc(NC(=O)COc4ccccc4F)ccc3o2)c1	inactive: 9.96%
Cc1cccc(NC(=O)c2oc3ccccc3c2NC(=O)Cc2coc3cc(C)cc(C)c23)c1	inactive: -2.17%
Cc1ccc(-c2c3c(=O)n(C)c(=O)n(C)c3c3c(C)nc4ccccc4n23)cc1	inactive: -4.55%
COc1ccc(NC(=O)Cn2ccn(-c3ccc(C)c(C)c3)c(=O)c2=O)cc1Cl	inactive: 3.38%
Cc1cc(N2CCN(c3ccc(F)cc3)CC2)n2cnnc2n1	inactive: 3.1%
Cc1ccc2c(CC(=O)Nc3ccc(S(=O)(=O)N4CCCC(C)C4)cc3)coc2c1 (configuration not stated)	inactive: 10.2%
CC1CCN(S(=O)(=O)c2ccc3c(c2)N(CC(=O)NCCN(C)C)C(=O)CS3)CC1	inactive: 1.54%
O=C(NCCc1ccccc1)c1ccc2c(c1)CCN2S(=O)(=O)c1ccc(Cl)cc1	inactive: -25.4%
O=C(Cn1c(=O)c2cccn2c2ccc(F)cc21)Nc1cccc(F)c1	inactive: 5.64%
CCCCN(C)C(=O)C1CCC(Cn2c(=O)[nH]c3ccsc3c2=O)CC1 (configuration not stated)	inactive: -18%
COc1ccccc1CNc1ncnc2c1nc1n2CCCC1	inactive: -3.81%
Cc1ccc(Cl)cc1NC(=O)c1cc(S(=O)(=O)N2CCOCC2)cn1C	inactive: 8.29%
COc1ccccc1CNS(=O)(=O)c1c(C)nc2sc(C)cn2c1=O	inactive: 6.73%
Cc1cc(NC(=O)c2cc(-c3ccc(F)cc3)on2)nn1Cc1ccc(Cl)cc1	inactive: 5.12%
Cc1oc2ncnc(N3CCOCC3)c2c1C(=O)Nc1ccc(Br)cc1F	inactive: 7%
Fc1ccc(-n2nc(-c3ccccc3)c3cnc4ccccc4c32)cc1Cl	inactive: -17.9%
CCOc1ccc(-c2cc3c(=O)n(CC(=O)NCc4ccccc4)ccn3n2)cc1	inactive: 1.51%
OC(c1ccccc1)c1nc2ccccc2n1Cc1c(F)cccc1Cl (configuration not stated)	inactive: -6%

SMILES	activity change, negative = cytotoxicity
Cc1ccc(CNC(=O)Cn2ccn(-c3ccc(F)c(F)c3)c(=O)c2=O)cc1	inactive: 1.54%
CCC(Sc1nc2ccncc2[nH]1)C(=O)Nc1cc(C)ccc1C (configuration not stated)	inactive: 2.68%
CCCn1c(=N)c(C(=O)NCc2ccco2)cc2c(=O)n3cc(C)ccc3nc21	inactive: 14.1%
Oc1c(C(c2ccc(Cl)cc2Cl)N2CCN(Cc3ccccc3)CC2)sc2nc(-c3ccco3)nn12 (configuration not stated)	inactive: 3.94%
CC(=O)c1cccc(NC(=O)c2cc3sc(Cl)cc3n2C)c1	inactive: 1.42%
CCOCCCNC(=O)C(c1ccc(Cl)cc1)N(Cc1ccc2c(c1)OCO2)C(=O)c1ccc(NC(C)=O)cc1 (configuration not stated)	inactive: -19.9%
CCOc1ccc(C(=O)Nc2ccc(C(=O)OCc3cc(=O)n4c(C)csc4n3)cc2)cc1	inactive: -23.3%
Cc1ccc(CNC(=O)c2ccc(N3Cc4ccccc4Oc4ncccc43)s2)cc1	inactive: -14.4%
COCCNC(=O)CCCn1c(SCc2ccccc2C)nc2c(sc3ccccc32)c1=O	inactive: -27.2%
CCn1cc(/C=C(\NC(=O)c2ccccc2Cl)C(=O)NCCCn2ccnc2)c2ccccc21	inactive: -1.59%
Cc1ccc(C2N3CC4(C)CN2CC(c2ccccc2)(C3)C4=O)cc1 (configuration not stated)	inactive: 7.14%
CCOc1ccc(NC(=O)Cn2nc(CC)n3c(cc4sccc43)c2=O)cc1	inactive: 2.6%
Cc1ccc2c(c1)c1c(c(=O)n(-c3cccc(Cl)c3)c(=O)n1CC(N)=O)n2C	inactive: 3.11%
COc1cc(Nc2nc3c(S(=O)(=O)c4cccc(Cl)c4)nnn3c3ccsc23)cc(OC)c1	inactive: 3.68%
COc1ccc(OCC(=O)Nc2cc(-c3nc4ccccc4o3)ccc2Cl)cc1	inactive: 12.9%
COC(=O)c1ccccc1NC(=O)Cn1c(=O)n(-c2ccc(C)cc2)c(=O)c2ccccc21	inactive: -6.33%
Cc1ccccc1OCCSc1nc2ccc(NC(=O)c3ccco3)cc2s1	inactive: -2.61%
O=C1Nc2ccccc2C1Cc1ccc(Br)cc1 (configuration not stated)	inactive: -26.6%
CC1CCc2noc(NC(=O)c3ccc([N+](=O)[O-])cc3)c2C1 (configuration not stated)	inactive: -1.67%
Cc1ccc(NC(=O)CN2C(=O)c3ccccc3Sc3ccc(C(=O)N4CCOCC4)cc32)cc1C	inactive: 11.1%
Cc1ccc(NC(=O)CSc2nc3nccnc3c(=O)n2CCc2c[nH]c3ccccc23)cc1C	inactive: 8.77%
CCOc1ccc(NC(=O)CN(c2ccc(C)cc2)S(=O)(=O)c2cccs2)cc1	inactive: -1.23%
